Assay results reported in ChEMBL document CHEMBL1201862, “PubChem BioAssay data set” (2004).
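Values below derive from 48-hour exposures of cells grown in 96-well plates, with endpoints linearly interpolated between the two concentrations bracketing the appropriate inhibition level. Here, GI50 denotes the concentration required for 50% inhibition of growth.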 Activity calls are given as the source filed them. Rule as the data show it: active = GI50 up to about 1.1 µM and inactive = higher.

The molecules below were run on NCI-H322M (assay: NCI tumour cell line growth inhibition, 48 h).

Structure (SMILES) | GI50
Clc1ccc(OCc2nnc3n2N=C(c2ccccc2)CS3)c(Cl)c1 | inactive: > 10 µM
COC1=CC(=O)C(O)=C(C[C@@]2(C)[C@@H]3CCC[C@H](COC(=O)CCCCCNC(=O)OC(C)(C)C)[C@@]3(C)CC[C@@H]2C)C1=O | inactive: > 10 µM
S=C(CSc1ccccc1)Nc1cccc2ccccc12 | inactive: > 100 µM
OCC1NCC(O)C(O)C1O (centres undefined) | inactive: > 100 µM
Cn1c(=S)c2nc(SCCCc3ccccc3)[nH]c2n(C)c1=O | inactive: 22 µM
C[C@]12CC[C@@H]3c4ccc(O)cc4CC[C@H]3[C@@H]1C/C(=C\c1ccc([N+](=O)[O-])cc1)C2=O | inactive: > 100 µM
Cc1cc(NC(=O)NC(=O)c2ccccc2NC(=O)CN(C)C)ccc1Oc1ncc(Br)cn1 | inactive: 6.5 µM
O=C(/C=C1/Nc2ccc([N+](=O)[O-])cc2N/C1=C/C(=O)c1ccc(Cl)cc1)c1ccc(Cl)cc1 | inactive: > 100 µM
CCn1c(SCC(=O)NNC(=S)Nc2ccc(F)cc2)nc2ccccc2c1=O | inactive: > 100 µM
COP(=O)(OC)/C(=C/c1cn(C(c2ccccc2)(c2ccccc2)c2ccccc2)cn1)NC=O | inactive: 26.1 µM
O=C1c2cc(Cl)ccc2N=C(NCCCl)C2CSCN12 (centres undefined) | inactive: > 100 µM
Cc1ccc(Nc2n[nH]c(=S)s2)cc1 | inactive: > 100 µM
CC(=O)O[C@H]1CC[C@@]2(C)C(=C/C(=N\[N+](=O)[O-])[C@H]3C4CCC([C@H](C)CCCC(C)C)[C@@]4(C)CCC32)C1 (some centres undefined) | inactive: > 100 µM
CN(C)CCCN1c2ccc([N+](=O)[O-])cc2CCc2cc([N+](=O)[O-])ccc21 | inactive: 13.9 µM
O=C(Nc1ccccc1)N(C1=NCC(CI)S1)c1ccc(F)cc1F (centres undefined) | inactive: 54.2 µM
CCc1cccc(C)c1NC(=O)CCc1n[nH]c(=S)o1 | inactive: > 100 µM
CN(C)CCNC(=O)c1cccc2ccc(-c3ccc(O)cc3)nc12 | inactive: 2.37 µM
CCOc1nc2c(N3CCCC3)nc(N3CCNCC3)nc2nc1NCc1ccccc1 | inactive: 1.56 µM
CCNC(=O)N(CC)CN(CC)C(=O)NCC | inactive: > 100 µM
C[C@@H](NC(=O)Cn1c(Cl)nc2ccccc21)c1ccccc1 | inactive: > 100 µM
S=c1[nH]nc(Cn2c3ccc(Br)cc3c3nc4ccccc4nc32)o1 | inactive: 30.4 µM
CC12CC1C(c1cccc([N+](=O)[O-])c1)(c1cccc([N+](=O)[O-])c1)N=N2 (centres undefined) | inactive: > 100 µM
COc1ccccc1NC(=O)C(CC(C(=O)Nc1ccccc1OC)/C(C)=N/NC(=O)c1ccccc1O)/C(C)=N/NC(=O)c1ccccc1O (centres undefined) | inactive: 99.5 µM

Structure (SMILES) | GI50
Cc1nc2c(n1-c1ccc(Br)cc1)C(=O)c1ccccc1C2=O | inactive: 17.4 µM
CC(CC(=O)CO[C@H]1[C@H](O)[C@@H](O)[C@@H](O)[C@@H]2NC(=O)c3c(cc4c(c3O)OCO4)[C@H]21)OC1OC(CO)C(O)C(O)C1O (some centres undefined) | active: 0.364 µM
CC(C)(C)c1ccc(OCCOCCOc2ccc(C(C)(C)C)cc2S(=O)(=O)Nc2ccc([N+](=O)[O-])cc2)c(S(=O)(=O)Nc2ccc([N+](=O)[O-])cc2)c1 | inactive: 31.3 µM
Cc1ccc(S(=O)(=O)Nc2nc3ccccc3c(=O)n2C2CCCCC2)cc1 | inactive: 69.5 µM
Cc1cc(Br)cc(C)c1NC(=O)C(=O)C(C(=O)c1ccc2ccccc2c1)C1OC(=O)c2ccccc21 (centres undefined) | inactive: 6.22 µM
CC1=CC(c2ccccc2)OP1(=O)c1ccccc1 (centres undefined) | inactive: > 100 µM
COC1C(O)C(n2ncc3c(SC)nc(SC)nc32)OC1C(O)CO (centres undefined) | inactive: > 100 µM
COC(=O)c1cc(-c2ccc(OC)c(OC)c2)oc1-c1ccc(OC)c(OC)c1 | inactive: 48.5 µM
Fc1ccc(C(OCCN2CCN(CCCc3ccccc3)CC2)c2ccc(F)cc2)cc1 | inactive: 8.57 µM
Cc1ccc(S(=O)(=O)NC(=O)C2=C(c3ccccc3)[N-]N(C)c3nc4cccc[n+]4nc32)cc1 | inactive: > 100 µM
O=[N+]([O-])C(=C1c2ccccc2-c2ccccc21)[N+](=O)[O-] | inactive: > 100 µM
CSc1nncc(-c2cc3c(c(SC)n2)CCC3)n1 | inactive: > 100 µM
CC(C)CCNC(=O)C(CC(C)C)NC(=O)[C@H]1O[C@@H]1C(=O)O (some centres undefined) | inactive: > 100 µM
CCc1nc(N)nc(N)c1-c1ccc2nnn(O)c2c1 | inactive: > 100 µM
CC(C)C1OC2(C)OC(=N)C1(C#N)C(C#N)(C#N)C2C (centres undefined) | inactive: > 100 µM
O=C1Nc2ccc(Br)cc2/C1=N/c1ccc2c(c1)OCO2 | inactive: 34.4 µM
CN1C(=O)CC2(C)c3cc(O)ccc3N(C)C12 (centres undefined) | inactive: 38.1 µM
O=C(O)C1=NN(c2ccc(S(=O)(=O)O)cc2)C2(C1)C(Cl)C(=O)N2c1nc2ccccc2s1 (centres undefined) | inactive: 20.2 µM
CCN(CC)c1c(N(CC)CC)c(=O)c1=O | inactive: 24.7 µM
COc1cc2cnc3c4cc(OCc5ccccc5)ccc4ccc3c2cc1OC | inactive: 40.4 µM
Cc1cccc(C(C)C)c1NC(=O)CC1C(=O)Nc2ccccc2S1(=O)=O (centres undefined) | inactive: 22.7 µM
COc1ccc(Oc2ccc3cc4c(cc3c2O)OCO4)c2cc(C)oc12 | inactive: 61.4 µM
CC(=O)N1c2ccccc2N(C(C)=O)C1c1ccc(C2N(C(C)=O)c3ccccc3N2C(C)=O)[nH]1 | inactive: > 100 µM

Structure (SMILES) | GI50
CN(C(=O)c1ccc(Cl)cc1)C(=S)N1CCN(c2ccccc2)CC1 | inactive: > 100 µM
CCOC(=O)C12CCCC1(O)N(NC(=O)OC(C)(C)C)C(C)=C2C(=O)OC (centres undefined) | inactive: > 100 µM
COC(=O)c1cc(C#N)[nH]c1-c1ccc(Br)s1 | inactive: 15.6 µM
CC(C)(C)C1CC[C@H](O)[C@H]([C@@H](O)CC2CC(=O)N(c3ccccc3)C(=O)C2)C1 (some centres undefined) | inactive: > 100 µM
COc1ccc(/C(C)=N/NC(=S)N(C)C)c(O)c1 | inactive: 3.19 µM
COc1ccc([C@H]2CC(=O)C[C@H](c3ccc(OC)cc3)C23C(=O)c2ccccc2C3=O)cc1 | inactive: 6.93 µM
CC(=O)Oc1ccc2ccc(=O)oc2c1OC(C)=O | inactive: 54.1 µM
O=c1cc(-c2nc3ccccc3[nH]2)[nH]c2nc(-c3nc4ccccc4[nH]3)cc(-c3ccc(Cl)cc3)c12 | inactive: 28.2 µM
O=C1C2=C(CC3=C(C2)CS(=O)(=O)C3)C(=O)C2=C1CC1=C(C2)CS(=O)(=O)C1 | inactive: 33.6 µM
COC(=O)C1C=CCC2CCCCC21N1CCCC1 (centres undefined) | inactive: > 100 µM
O=C1CC[C@@]2(O)[C@H]3Cc4ccc(-c5ccccc5)c5c4[C@@]2(CCN3CC2CC2)[C@H]1O5 | inactive: 22.8 µM
Cc1ccc2c(c1)C(=O)/C(=N/Nc1ccc(Cl)cc1)CCO2 | inactive: > 100 µM
COc1ccc(CN2C(=O)C(Cc3cc(OC)c(OC)c(C)c3OC)N(C(=O)OC(C)C)C(=O)/C2=C/c2cc(OC)c(OC)c(C)c2OC)cc1 (centres undefined) | inactive: 88.7 µM
C/C(=N/NC(=S)Nc1ccc(C)cc1)c1ccccn1 | active: < 0.0133 µM
O=C(O)C1(C(=O)O)CC1 | inactive: > 100 µM
O=C(NCCNCCNC(=O)C(F)(F)F)C(F)(F)F | inactive: > 100 µM
CC1=C(C)C2(C#N)C(=O)N3C(=NC(c4ccccc4)NC3c3ccccc3)C2(C#N)C(c2ccccc2)N1 (centres undefined) | inactive: > 100 µM
CCCCCCC(C)c1ccc2c(c1)C(=O)c1nc3ccncc3c(=O)n1-2 (centres undefined) | inactive: 3.44 µM
C=C1C(=O)C23[C@H](O)C1CC[C@H]2[C@]12COC3(O)[C@@H](O)[C@@H]1C(C)(C)CC[C@@H]2O | inactive: 15.8 µM
CC(=O)c1sc2[n+](c1C)C(=O)/C(=C\c1ccccc1Cl)S2 | inactive: 35.5 µM
CC1(c2ccc(Cl)cc2)N=C(NCCO)c2ccccc21 (centres undefined) | inactive: 17.7 µM
CC(C)(C)c1cc(C(C)(C)C)c(SC2OC(CO)C(O)C(O)C2O)c(O)c1O (centres undefined) | inactive: 11.6 µM
c1ccc2c(c1)-c1ccccc1C2N1CC2CCC(CC2)C1 | inactive: 30.5 µM

Structure (SMILES) | GI50
O=C1C=C(c2ccccc2)O/C1=C/C(=O)c1ccc(Cl)cc1 | inactive: 46 µM
O=C(O)c1ccc2c(c1)CC1(C2)Cc2cc3c(cc2C1=O)CCC3 (centres undefined) | inactive: > 100 µM
COc1ccccc1CCN1CCN(CCCc2ccccc2)CC1 | inactive: > 100 µM
O=C(O)C#CCO | inactive: > 100 µM
CCN(CC)CC(C(=O)Nc1c(C)cccc1C)/C(C)=N\NC(=S)NN (centres undefined) | inactive: > 100 µM
CC(=O)NCCC1CN(C(=O)/C=C/I)c2ccccc21 (centres undefined) | inactive: 14.3 µM
O=[N+]([O-])c1cnccc1-n1nnc2ccccc21 | inactive: 19.4 µM
NC(CCCCNCc1ccccc1O)C(=O)O (centres undefined) | inactive: > 100 µM
Cc1ccccc1-c1cc(=O)c2cc(C)c(C)c(C(=O)O)c2o1 | inactive: > 100 µM
O=C1CC(c2ccccc2)n2cccc21 (centres undefined) | inactive: > 100 µM
COc1cc(/N=N\c2cccc(S(=O)(=O)O)c2)ccc1/N=N\c1ccc(/C=C/c2ccc(-n3on3-c3ccc(/C=C/c4ccc(/N=N/c5ccc(/N=N\c6cccc(S(=O)(=O)O)c6)cc5OC)cc4S(=O)(=O)O)c(S(=O)(=O)O)c3)cc2S(=O)(=O)O)c(S(=O)(=O)O)c1 | inactive: > 100 µM
CC(=O)C(C)C(=O)N1C(=O)N(C)C2(C)N(C)C(=O)NC12C (centres undefined) | inactive: > 100 µM
O=C(O)[C@@H]1CSCN1C(=O)[C@@H]1CCC(=S)N1 | inactive: > 100 µM
COC(=O)CC[C@@H](C)[C@H]1CC[C@H]2[C@@H]3CC[C@@H]4C[C@H](O)CC[C@]4(C)[C@H]3CC[C@]12C | inactive: 19.2 µM
Nc1ccc(Nc2cc(O)nc(O)n2)cc1 | inactive: 76.2 µM
Clc1cc2nc[nH]c2cc1Cl | inactive: > 100 µM
CCc1nc(N)nc(N)c1-c1ccc(NCCc2ccccc2)c([N+](=O)[O-])c1 | inactive: 1.79 µM
CC(C)CCC[C@@H](C)C1CCC2[C@@H]3CCC4C[C@@H](NS(C)(=O)=O)CC[C@]4(C)C3CC[C@@]21C (some centres undefined) | inactive: > 100 µM
Cc1c2ccncc2c(C)c2c1[nH]c1ccc(OCC(F)(F)F)cc12 | inactive: 1.73 µM
COc1ccc(/C=C/c2cc(OC)c(O[Si](C)(C)C(C)(C)C)c(OC)c2)cc1 | inactive: > 100 µM
